Measurements as given in PubChem BioAssay AID1159614 (National Center for Advancing Translational Sciences (NCATS), 2016).
Among all 45,000 compounds or so, about 65 (0.1%) were called active. The call rests on the fitted dose curve; in most records, active means well fitted activation curve with a large enough effect; inconclusive means small, poorly fitted or top-dose-only effect; inactive means no such curve, though single readings can be large or run the other way. Some of the results follow.

biological target: Galactocerebrosidase (Homo sapiens) (UniProt P54803); assay: A Novel Cell-Based Assay to Identify Small Molecules for B -Galactocerebrosidase; settings: 145M-Twi-hGALC-G270D cells (Twitcher mouse brain line with human GALC G270D), HMU-beta-Gal fluorescence, 48 h; series mostly up to 57.5 µM; activation: at the top concentration; further: 0% is about no effect; nearly all actives have a fitted effect of over 65% in size
Sequence of UniProt P54803 (P54803 whole entry, looked up): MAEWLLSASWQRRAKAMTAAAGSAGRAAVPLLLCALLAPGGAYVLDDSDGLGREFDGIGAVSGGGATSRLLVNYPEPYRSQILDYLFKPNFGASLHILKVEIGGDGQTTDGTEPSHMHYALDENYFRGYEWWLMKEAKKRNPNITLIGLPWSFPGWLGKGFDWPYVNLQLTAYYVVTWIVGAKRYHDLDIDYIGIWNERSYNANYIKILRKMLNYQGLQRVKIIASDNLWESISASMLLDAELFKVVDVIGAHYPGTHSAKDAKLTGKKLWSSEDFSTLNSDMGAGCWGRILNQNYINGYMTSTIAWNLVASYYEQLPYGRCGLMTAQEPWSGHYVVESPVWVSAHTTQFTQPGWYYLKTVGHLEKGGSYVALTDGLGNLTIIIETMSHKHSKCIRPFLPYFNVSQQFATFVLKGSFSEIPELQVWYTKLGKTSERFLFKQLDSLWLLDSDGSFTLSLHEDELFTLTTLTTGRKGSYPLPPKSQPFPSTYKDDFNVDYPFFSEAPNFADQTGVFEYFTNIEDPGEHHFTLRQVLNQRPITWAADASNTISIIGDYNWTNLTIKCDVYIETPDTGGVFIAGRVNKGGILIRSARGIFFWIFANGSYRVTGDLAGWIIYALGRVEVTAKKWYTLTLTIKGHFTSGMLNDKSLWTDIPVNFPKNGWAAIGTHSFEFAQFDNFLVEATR
How it was run: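 Fluorogenic HMU-b-Gal hydrolysis (0.1 mM final, pH 5.2 citrate-phosphate with 1 mg/mL sodium taurocholate; carbonate stop buffer) measures mutant GALC activity after compound treatment of live 145M-Twi Twitcher brain cells stably carrying human GALC-G270D, with wild-type GALC line alongside; activation sought.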

activation, inactive:
Cc1cc(C)nc(-n2nc(C)c3c2N(Cc2ccccc2)C(=O)CC3c2ccc(Cl)cc2)n1 (configuration not stated) -12.6%
Cc1cc(C)cc(OCC(=O)Nc2c(C(=O)c3ccccc3)oc3ccccc23)c1 1.23%
CCC(=O)N1c2ccccc2CC1C(=O)NCc1cc(OC)ccc1OC (configuration not stated) -16.1%
O=C(CCn1c(=O)c2cccn2c2cccnc21)Nc1ccccc1C(F)(F)F -7.91%
CCN(C(=O)Cn1c(=O)n(-c2ccccc2)c(=O)c2ccc(C(=O)NCc3ccc4c(c3)OCO4)cc21)c1cccc(C)c1 -11%
Cc1c(Cl)cccc1NS(=O)(=O)c1ccc(-c2cnc(C3CC3)o2)cc1 -8.31%
CCCCCCCCCCCCSCCOCCO -14.6%
CCOc1ccc(NC(=O)c2cc(S(=O)(=O)N3CCc4ccccc43)ccc2F)cc1 -8.09%
CC(C)c1ccc(NC(=O)c2cc(S(=O)(=O)N(C)C3CCCCC3)ccc2F)cc1 -10.3%
CCCCn1cnc2cc(NCc3ccc(OCC)cc3)ccc21 -15.3%
O=C(c1ccc2c(c1)N(Cc1ccccc1F)C(=O)c1ccccc1S2(=O)=O)N1CCN(c2ccccn2)CC1 -18.1%
CCn1cc(S(=O)(=O)c2cccc(C)c2)c(=O)c2cc(F)c(N3CCCC(C)C3)cc21 (configuration not stated) -12%
CCOc1ccc(CNC(=O)C2CCCCN2S(=O)(=O)c2ccc(F)cc2)cc1OC (configuration not stated) 2.16%
O=C(CCC(=O)c1ccc(F)cc1)Nc1ccc(Cl)cc1 -15.5%
O=C(CSc1n[nH]c(-c2ccccc2Cl)n1)NCc1ccc(F)cc1 3.72%
CCn1c(=O)c2cc(C(=O)NCCCN3CCN(C)CC3)sc2c2ccccc21 -3.33%
COc1ccc(-c2nc3c(c(SC)n2)Cc2c(CO)cnc(C)c2O3)cc1 -2.3%
O=C(NCCCN1CCN(c2cccc(Cl)c2)CC1)c1sc2ncccc2c1-n1cccc1 -25.4%
Cc1ccc(-c2nc(CS(=O)(=O)CC(=O)Nc3ccc(Br)cc3F)c(C)o2)cc1 -18.3%
CCOc1ccc(NC(=O)CSC2=Nc3ccccc3C3=NC(CCC(=O)NCc4ccco4)C(=O)N23)cc1 (configuration not stated) -7.64%
CCC(=O)Oc1c(Sc2ccc(Cl)cc2)c(C)nn1-c1ccccc1 -15.1%
Cc1ccc(Cl)cc1N1CCN(C(=O)Cn2ncc3c4ccccc4n(C)c3c2=O)CC1 -9.3%
COc1ccc(S(=O)(=O)NCc2nc3nc(C)cc(C)n3n2)cc1 -14.1%
Cc1ccc(Nc2c(-c3ccc(Br)o3)nc3ccccn23)cc1 22%
COc1ccc2oc(=O)c(-c3nnc(-c4ccc(C)cc4)o3)cc2c1 7.79%
Cc1cc2c(cc1S(=O)(=O)Nc1ccc(OC(F)(F)F)cc1)OCC(=O)N2 -15.4%
CCN(CC)S(=O)(=O)c1ccc2c(c1)N(CC(=O)NCc1ccccc1)C(=O)C1CCCCN21 (configuration not stated) -27.3%
CC1CCCN(c2nc3c(-c4ccc(Cl)cc4)nnn3c3ccccc23)C1 (configuration not stated) 4.32%
Cc1cc(Cl)ccc1NS(=O)(=O)c1c(C(=O)N2CCC(C)CC2)c(C)n(C)c1C -8%
Cc1ccc(-c2csc(-c3cc4c([nH]c3=O)CC(c3ccccc3)CC4=O)n2)cc1 (configuration not stated) -22.3%
Cc1ccccc1NC(=O)CSc1nc2nccnc2c(=O)n1CCc1c[nH]c2ccccc12 -5.24%
COc1ccc(S(=O)(=O)c2cnc3ccc(Cl)cc3c2N2CCCCC2C)cc1 (configuration not stated) -10.4%
Cc1cc(C)cc(OCC(=O)Nc2c(C)ccc3nsnc23)c1 -8.79%
CCCCN(C)CCCNC(=O)Cn1ncc2c3ccccc3n(Cc3ccccc3)c2c1=O 5.47%
Cc1cccc(NC(=O)CSc2nccn2Cc2ccc(F)cc2)c1C -0.708%
CCOc1ccc(N(CC)S(=O)(=O)c2cc(Br)cc3c2N(C(C)=O)C(C)C3)cc1 (configuration not stated) -0.922%
COc1ccc(NC(=O)CSc2nc(-c3ccco3)cc(C(F)(F)F)n2)cc1OC -21.2%
Cc1cccc(N2CCN(C(=O)Cn3nc(C)n4cccc4c3=O)CC2C)c1 (configuration not stated) -13.6%
CN(Cc1ccccc1)S(=O)(=O)c1nnc(NC(=O)c2cccc(Cl)c2)s1 -18.6%
COc1ccccc1NC(=O)CSC1=Nc2ccccc2C2=NC(CC(=O)NCc3ccco3)C(=O)N12 (configuration not stated) -11.5%
CCOc1ccccc1CN1CCN(S(=O)(=O)c2ccccc2)CC1 -2.09%
CCOC(=O)c1c(-c2ccccc2)oc2ccc(NS(=O)(=O)c3cc(C)c(C)cc3C)cc12 -13.2%
Cc1ccc(C(=O)Nc2cc3c(cc2C)n(C)c(=O)c(=O)n3C)cc1 -4.65%
O=C(CN1N=C(c2ccc(Cl)cc2)CCC1=O)NCCc1ccc(Cl)cc1 -6.96%
COCc1nc2ccccc2n1CCOc1cccc(C)c1 -9.34%
COc1ccc(S(=O)(=O)N2CCCN(CC(=O)Nc3ccc(NC(C)=O)cc3)CC2)cc1 -15.4%
CC(=O)c1cccc(NC(=O)c2oc3c(c2C)-c2nn(Cc4ccc(Cl)cc4)cc2CC3)c1 -26.7%
Cc1ccccc1NC(=O)c1ccc2c(c1)c(C)c(C)n2Cc1ccccc1 -8.79%
Cc1nc2c(C(=O)NCCCN(CC(C)C)CC(C)C)cnn2c(C)c1Cc1c(F)cccc1Cl -21.2%
CCCOC(=O)c1c(NC(=O)c2nc3ncccn3n2)sc(C(N)=O)c1C -16.6%
CCc1ccc(-n2nc(C)c3c(C)cc(=O)n(Cc4nc(-c5ccccc5)oc4C)c32)cc1 -3.32%
COc1ccc(OC)c(CNC(=O)c2ccc(Sc3ccc(C)cc3)c(N)c2)c1 -5.74%
Cc1ccc(NC(=O)CN2C(=O)CCc3cc(S(=O)(=O)N4CCOCC4)ccc32)cc1F -5.8%
Cc1cccc(CNC(=O)CCn2c(=O)c3cccn3c3ccc(F)cc32)c1 -5.47%
Clc1ccc(Nc2nnc(Cc3ccncc3)c3ccccc23)cc1 -11.4%
CCCc1nn2c(=O)cc(COC(=O)c3ccccc3NC(=O)COc3ccccc3F)nc2s1 2.08%
COc1ccc(NC(=O)c2oc3ccc(S(=O)(=O)N4CCCCC4)cc3c2C)cc1 -21.3%
CCOc1ccc(CNC(=O)C2Cc3ccccc3N2C(=O)CC)cc1OC (configuration not stated) -4.4%
CCOC(=O)CSc1nc(-c2ccc(C)cc2C)cc(-c2ccccc2)c1C#N -1.66%
Cc1ccc(C(=O)CSc2nc(-c3ccccc3)nc3c2CCCC3)cc1 -6.28%
CCOc1ccccc1NC(=O)N1CC(CC)Oc2ccccc21 (configuration not stated) -11.4%
C#Cc1ccc(-c2ccccc2F)cc1 -17.9%
COc1cccc(CNCCNC(=O)c2nonc2N)c1 -10.8%
CCSc1nc2c([nH]c3ccccc32)c(=O)n1CC -7.84%
O=C(NCc1ccccc1Cl)c1cc2c(s1)-c1ccc(Cl)cc1SC2 -10.1%
Cc1cccc(NS(=O)(=O)c2c(C)nc3sccn3c2=O)c1C -14.8%
O=C(Cn1c(=O)nc(-c2ccccc2)c2ccccc21)Nc1cccc(C(F)(F)F)c1 -16.1%
Cc1c(C(=O)NCc2cccc(Cl)c2)sc2ncnc(N(C)C3CCCCC3)c12 -6.89%
CC(C)(C)C(=O)Nc1cccc(-c2cn3cccnc3n2)c1 -10%
CC(=O)N1CCc2c(sc(NC(=O)CSc3ccccc3)c2-c2nc3ccccc3s2)C1 -12.9%
COc1cccc(-n2c(=O)c3c(C)c(C)sc3n(CC(=O)NCc3ccc(C)cc3)c2=O)c1 -18.7%
Cc1cccc(CSc2ncc(Cl)c(C(=O)Nc3sc4c(c3C(N)=O)CCCC4)n2)c1 4.03%
CCOc1ccc(CCNC(=O)c2cc3c(=O)oc4ccc(C)cc4c3s2)cc1OCC -3.3%
COc1ccc(-c2cn(-c3ccc(C)cc3)c(S(=O)(=O)CC(=O)Nc3ccc(F)cc3)n2)cc1 -41.2%
COc1ccccc1NC(=O)c1cc(=O)c2ccc(C)c(C)c2o1 -11.1%
CCOC(=O)c1ccc2c(c1)N(CC(=O)N(C)c1ccccc1)C(=O)c1ccccc1S2 -30.8%
Cc1ccc(Cc2c(C)nc3nc(SCC(=O)NC4CCC(C)CC4)nn3c2C)cc1 (configuration not stated) -3.89%
O=C(CC1N=C2c3ccccc3N=C(SCc3cccc(Cl)c3)N2C1=O)NCc1ccc2c(c1)OCO2 (configuration not stated) -8.02%
CC1CCCCN1C(=O)CSc1n[nH]c(-c2ccccc2Cl)n1 (configuration not stated) -9.4%
COc1cc(Nc2nc(SCC(=O)c3ccc(Br)cc3)nc3ccccc23)cc(OC)c1 -9.4%
N#C/C(=C\c1ccc(-c2ccc(C(=O)O)cc2)o1)C(=O)Nc1ccccc1C(=O)O -8.43%
Cc1nn(CCC(=O)Nc2cc(F)ccc2F)c(=O)c2nn(-c3ccccc3)c(C)c12 -5.21%
CCOC(=O)[C@H](CCc1ccccc1)N[C@@H](C)C(=O)N1Cc2cc(OC)c(OC)cc2C[C@H]1C(=O)O -16.6%
COc1cccc(NC(=O)CCNS(=O)(=O)c2ccc3c(c2)oc(=O)n3C)c1 -7.1%
O=C1CCCc2cc(S(=O)(=O)N3CCCC(C(=O)NCc4ccccc4)C3)ccc2N1 (configuration not stated) -25.9%
CC(=O)c1cccc(NC(=O)c2nc(-c3ccccc3)n(-c3ccccc3)n2)c1 -21.4%
Cc1cc(C)c(NC(=O)CN(C)S(=O)(=O)c2ccc3c(c2)CCC(=O)N3)c(C)c1 -20.5%
O=C(Oc1cccc2cccnc12)c1ccccc1 -16.9%
COc1cc2c(cc1OC)n(Cc1cccc(C(F)(F)F)c1)c(=O)n1nc(-c3ccccc3)nc21 -4.82%
COc1cc2c(cc1OC)C(COc1cccc(C(F)(F)F)c1)N(C(=O)c1ccc(S(=O)(=O)N3CCCC3)cc1)CC2 (configuration not stated) -18.2%
CCc1ccccc1NC(=O)C(=O)NCCCN1CCOCC1 2.29%
CCC(C)NC(=O)C1CCN(S(=O)(=O)c2ccc3c(c2)CCCN3C(C)=O)CC1 (configuration not stated) -13.7%
CCn1cc(C(=O)N2CCN(c3ccc(C)cc3)C(C)C2)c(=O)c2cc(S(=O)(=O)N3CCCC3)ccc21 (configuration not stated) -17.2%
Cc1cc(C)c(NC(=O)CCS(=O)(=O)c2cc3c(cc2Cl)NC(=O)CO3)c(C)c1 -14.8%
CCOc1ccc(NS(=O)(=O)c2cc3c(cc2Cl)NC(=O)CO3)cc1 -16.9%
CCOc1ccc(N(C)S(=O)(=O)c2ccc3c(c2)CCCN3C(C)=O)cc1 -10.2%
CC(=O)Nc1ccc(NC(=O)CCCn2nc(C)c3sc4ccccc4c3c2=O)cc1 -21.2%
